From the supplement of paper PMC3334620
Over roughly 33,000 sequences, “E-score (-0.5 to 0.5)” has its median near -0.017; the highest 2% begin near 0.3. The list shows a part of the results.

These sequences were tested against T1, Sut1 (UniProt P53032) (assay: PBM E-score (8-mer binding enrichment) (E-score (-0.5 to 0.5)); higher = stronger / more preferred TF binding; most listed sequences are background and not binding sites). Conditions: protein concentration: 200 nM; construct: GST-full length.
T1 sequence: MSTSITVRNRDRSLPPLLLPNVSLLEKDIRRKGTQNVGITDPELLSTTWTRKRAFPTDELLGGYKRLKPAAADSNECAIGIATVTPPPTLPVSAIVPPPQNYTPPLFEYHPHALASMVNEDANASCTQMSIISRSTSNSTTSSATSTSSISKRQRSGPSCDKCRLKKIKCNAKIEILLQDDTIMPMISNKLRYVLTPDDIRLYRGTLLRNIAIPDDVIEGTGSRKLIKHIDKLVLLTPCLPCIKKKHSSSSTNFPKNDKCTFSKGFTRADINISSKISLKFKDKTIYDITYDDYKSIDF
Procedure, shortened: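 Each ungapped eight-base word and its reverse complement, pooled, received an E-score from the Universal PBM Analysis Suite. Underlying scans, normalised with masliner, recorded fluorescent anti-GST bound to GST-tagged yeast transcription factors. These were applied at about 100-200 nM to universal all-10-mer Agilent arrays double-stranded by primer extension.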

Sequence | PBM E-score
AAGCAGCA | -0.0845
ATTAGTCA | 0.141
CGGTCTGA | 0.00124
GTTGCCAA | -0.0757
AATATCGG | 0.197
AATCGCAG | 0.018
TCAGACAA | -0.00742
GGGCGATA | -0.27
CAGATAAA | 0.106
AATTTCTA | 0.285
GTGCCCCA | -0.316
AAACCCGG | 0.189
GATCTTTA | 0.182
AGGTCTTC | -0.256
ATTGGATG | 0.0551
GACCACCA | -0.12
AAAATCAT | 0.194
ATGTCCTG | -0.0409
ACCTAGCT | -0.00549
AATGGAGT | 0.0746
ACCAAACC | 0.0288
GTCGCGAA | -0.0205
ACCGACAT | 0.00731
CGAACAGA | 0.0271
AAGATCAC | 0.0488

Sequence | PBM E-score
CCAGGCTC | -0.181
GCCAGGTA | -0.192
TATCCGAA | 0.304
CCGGGTTC | -0.0363
GAGAGCCA | -0.115
AACTATAC | 0.177
AACGTTAC | 0.0371
GAAGATCA | 0.0779
GCGATGCA | -0.235
CCTGGGAG | -0.179
GGGTGACC | -0.248
CGAGGATC | -0.0554
AAGGGCTA | 0.0451
GACATTCC | -0.0436
CACTCATG | -0.107
ACGCACAG | -0.207
CTTGCACC | -0.0271
CCGCCCAC | -0.0748
AGGCGCTA | -0.0939
CAAAACAA | 0.00775
AGTTCATC | 0.123
GGCGGGTA | -0.196
AAGGATGT | -0.112
AGGCTAAA | 0.0304
CACCGTTA | 0.0406

Sequence | PBM E-score
GGCGACAC | -0.0926
CGTCTCGA | -0.113
AAGGATCC | -0.036
AATGATTA | 0.235
AAATATTG | 0.25
CCGGCAAG | 0.0478
GTCTATGA | 0.00254
GCGTCTTA | -0.0538
GGCTGAAC | -0.148
ATGAAATG | 0.00832
CCGACACC | -0.0623
AGGAAGTG | -0.0113
GTACGTGA | -0.0123
ATCAACAA | 0.148
ACGATGCC | -0.355
ATAAGTTG | 0.0781
CTAAAGCC | -0.108
ACGACGTA | -0.0283
CCGGTAAC | 0.141
GCGCAACA | -0.134
AACTACCT | 0.098
ATACGGTG | 0.0347
CGTGTTAG | -0.013
GAAAGGTC | 0.00465
GCATGTTA | 0.133

Sequence | PBM E-score
ACTTGACG | 0.0562
AAGGCCTA | -0.0434
CTTTGCGA | 0.029
ACCCTCTG | -0.219
GGTTGATA | 0.0788
GAGAGGCC | -0.18
AATTGTGT | 0.0546
CTAGTTTA | 0.0403
CATTTACA | 0.0499
CGCGCTTA | 0.116
AAAGTGGA | -0.0242
ACTCATAT | 0.106
AGGACGAG | -0.146
CCGTCCCC | -0.215
ATCTCTAG | 0.0132
ATACTTTA | 0.275
CTGCATAC | -0.0103
TAGACAAA | 0.0918
AATGTTCG | 0.00278
CCAGGCCA | -0.323
AACTCAAT | 0.208
GCGAATAC | 0.0643
AACAATGG | 0.00374
CGGTACCC | -0.123
CCCAGCAG | -0.0564

Sequence | PBM E-score
CCGCATGC | -0.117
AACTGGCA | -0.0343
CAAGTTAA | 0.0317
TTCCCCAA | -0.114
ACTATACT | 0.136
TATTTTGA | 0.131
GCCATTTA | -0.0723
CAGCATCA | -0.0489
GCATGCCA | -0.207
ATGGGAAT | -0.0435
TCGTCCAA | 0.0754
CAAAGGCA | -0.05
AAATAGCT | 0.0603
GTGCGCTA | -0.0687
CCCATTTC | -0.00805
CACGCTTC | -0.213
CTGTTCAA | 0.121
CTATCATA | 0.138
AAACGACT | 0.107
AGGACTTG | -0.05
GCGAAGGA | -0.103
GTATAGGA | -0.0517
AAGTTCCC | -0.204
GCCCCAGC | -0.152
CACCTTCC | -0.0147

Sequence | PBM E-score
TGCTGCCA | -0.188
CCCATCAA | 0.0281
ATTCCACA | 0.18
AAAGTCTA | 0.064
ACTGACGC | -0.274
GAGAACAA | 0.192
TGAATCAA | 0.244
ATCATCTC | 0.179
ACGTAGAA | 0.0859
AAACACCA | 0.0903
GTTCAACA | 0.0826
ATTGGGCA | 0.0137
AGTTTCCG | 0.207
CAGTCTAG | -0.164
ACGGCCCA | -0.114
ATCGCTGG | -0.146
CTAGGTCA | 0.0351
CGCCCGGA | 0.361
GGTTCCAC | 0.0587
ACGTCGCT | -0.0756
TAAGGTCA | -0.0581
AATCGGCG | -0.0941
CCATAAGG | -0.266
CACTGCAA | -0.0662
ACCCCTAA | -0.204

Sequence | PBM E-score
ACAAACGT | -0.12
ACAAAGGT | 0.101
ACACACAA | 0.00492
CGAGGACC | -0.136
AGCTGAGG | -0.145
CCGGTTCG | 0.0282
CGAGCGCC | -0.182
GATGCAGA | -0.178
CCTGAACG | -0.182
CTAACGAG | -0.0946
CCAACCGA | 0.0523
AGGCCCCA | -0.369
CACTAGAC | -0.0456
AGCTCACA | -0.128
ACTGCTAA | -0.00152
ATAGTGCA | 0.0964
GGATCCTA | -0.103
ATTTCCAA | 0.129
CCATCCAG | -0.248
CTCGCGGA | 0.195
AAATAGCA | 0.214
GACATTGA | 0.119
